Where a name gives a salt, the structure may show the parent alone. This is one part of the list. Cut-off read from the data, not from the text of the source: active = 0.5 or less and inactive = the rest. Many values rest on one well or one pass, so single values are uncertain.
How the values were obtained:
Conditions in all cases: 50 µM; 24 h
[1] = tested on: HeLa VPS33A reporter cells; experiment: relative cell viability (CellMask signal) vs DMSO (fraction of DMSO); higher = less cytotoxic;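 note: primary screen of an FDA-approved drug library in HeLa reporter cells in 96-well format, CellMask signal normalized to DMSO-treated wells set as 1, under 0.5 deemed highly cytotoxic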
[2] = tested on: HeLa VPS33A R498W KI + HA-SDC1-FLAG; experiment: relative GAG core protein HA-SDC1 amount per cell number vs DMSO (fraction of DMSO); higher = more SDC1 (GAG core protein);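 note: HA-SDC1 level read out by In-Cell Western staining with an anti-HA antibody against the N-terminal tag, screening FDA-approved library drugs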
[3] = tested on: HeLa VPS33A KO + NLuc-VPS33A R498W; experiment: relative mutant VPS33A R498W amount (NanoLuc luminescence) vs DMSO (fraction of DMSO); HeLa model of a glycosaminoglycan (GAG) storage disease; KI is knock-in and KO knock-out; SDC1 is syndecan 1; higher = higher mutant VPS33A level;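 note: screen of an FDA-approved drug library, NanoLuc luminescence read after lysing the treated cells, taken as a measure of mutant VPS33A protein stability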

| SMILES | relative cell viability [1] | relative GAG core protein HA-SDC1 amount per cell number [2] | relative mutant VPS33A R498W amount [3] |
| --- | --- | --- | --- |
| CC(N)C12CC3CC(CC(C3)C1)C2 (stereo not given) [Rimantadine Hydrochloride] | 1.07 | inactive: 0.84 | 0.996 |
| CNC(=O)[C@H](Cc1c[nH]c2ccccc12)NC(=O)[C@@H](CC(=O)NO)CC(C)C | 0.7 | inactive: 0.613 | 0.796 |
| CC(C(=O)O)c1ccc2c(c1)CC(=O)c1ccccc1S2 (stereo not given) [Zaltoprofen] | 0.997 | inactive: 0.843 | 1.1 |
| Nc1nc(NC2CC2)c2ncn([C@H]3C=C[C@@H](CO)C3)c2n1 [Abacavir] | 1.12 | inactive: 0.752 | 0.832 |
| CN1CCC(=C2c3ccccc3CCc3sccc32)CC1 [Pizotifen Malate] | 0.881 | active: 0.371 | 0.44 |
| CNC[C@H](O)c1cccc(O)c1 [Phenylephrine HCl] | 1.23 | inactive: 0.96 | 1.02 |
| CNC(=O)[C@H](Cc1ccccc1)NC(=O)[C@H](CC(C)C)[C@H](CSc1cccs1)C(=O)NO [Batimastat (BB-94)] | 1.29 | inactive: 1.36 | 1.02 |
| COc1cccc(CCc2ccccc2OCC(CN(C)C)OC(=O)CCC(=O)O)c1 (stereo not given) [Sarpogrelate hydrochloride] | 1.01 | inactive: 0.703 | 0.798 |
| O=C1O[C@H]([C@@H](O)CO)C([O-])=C1O.[Na+] [Sodium ascorbate] | 0.932 | inactive: 0.946 | 1.07 |
| CC(C)=CCC[C@](C)(O[C@@H]1O[C@H](CO)[C@@H](O)[C@H](O)[C@H]1O)[C@H]1CC[C@]2(C)[C@@H]1[C@H](O)C[C@@H]1[C@@]3(C)CC[C@H](O)C(C)(C)[C@@H]3[C@@H](O[C@@H]3O[C@H](CO)[C@@H](O)[C@H](O)[C@H]3O)C[C@]12C [Ginsenoside Rg1] | 0.918 | inactive: 0.715 | 1.3 |
| Cc1c(S(=O)(=O)O)oc2c1C(=O)C(=O)c1c-2ccc2c1CCCC2(C)C [Tanshinone IIA---sulfonic sodium] | 1.03 | inactive: 0.636 | 1.09 |
| Cc1cccc(C)c1OCC(C)N (stereo not given) [Mexiletine HCl] | 0.91 | inactive: 1.08 | 1.08 |
| CCC(=O)O[C@]1(C(=O)SCF)[C@H](C)C[C@H]2[C@@H]3C[C@H](F)C4=CC(=O)C=C[C@]4(C)[C@@]3(F)[C@@H](O)C[C@@]21C [Fluticasone propionate] | 1.03 | inactive: 1.04 | 1.42 |
| Cc1cc(=O)n(-c2ccccc2)n1C [Antipyrine] | 1.11 | inactive: 0.794 | 1.17 |
| CC1(C)C[C@@H]1C(=O)N/C(=C\CCCCSC[C@H](N)C(=O)O)C(=O)O [Cilastatin] | 1.03 | inactive: 0.884 | 1.3 |
| Cn1c(=O)cc(N2CCC[C@@H](N)C2)n(Cc2ccccc2C#N)c1=O [Alogliptin Benzoate] | 1.12 | inactive: 1.16 | 1.3 |
| Oc1ccc(/C=C/c2cc(O)cc(O)c2)cc1 [Resveratrol] | 0.933 | inactive: 0.72 | 0.47 |
| C[N+](C)(C)CCOP(=O)([O-])OC[C@H](O)CO [sn-Glycero-3-phosphocholine] | 1.22 | inactive: 1.46 | 0.674 |
| Cc1ncc([N+](=O)[O-])n1CC(O)CCl (stereo not given) [Ornidazole] | 1.13 | inactive: 0.774 | 0.988 |
| CN(Cc1cnc2nc(N)nc(N)c2n1)c1ccc(C(=O)N[C@@H](CCC(=O)O)C(=O)O)cc1 [Methotrexate] | 1.11 | inactive: 0.771 | 0.359 |

Reference: the supplement of paper PMC12355420
